Reference: publication PMC12136788
The list shows a part of the results.

B1: chr17:47010600:47010601:-_ENSG00000159210_ENST00000290330|hu_mus|FALSE|FALSE (ssRNA)
RNA: GGGAGUUCUACAGUCCGACGAUCGACAGUCACAUACCCGUUUUUCUCGGCCAGCUGCAGCACAACAGUGUGAUCCAUAUUGAGCUCAGCGGGAACAGACUGGAUGAGGUAAGUGCCUCCCACAGGGAUGAUGCCGAAUCCAGUCAACAGAGGAUUGAGCAUCA
B2: chr12:39756943:39756944:-_ENSG00000139116_ENST00000544797|hu_mus|hu_hu_hu_mus_False|1_58 (ssRNA)
RNA: GGGAGUUCUACAGUCCGACGAUCGGUUUGGCUGUUACCCCCAAGGGAAUCCUGCAAGAGUCUUGUCAGCUUAGAGUCUCUAUAGGGGACAUGGGUGGCUCUCUUGCUCUUGUCCCCCAAGGCGCUGAUUACAUUCCCAAGUGCCAACAGAGGAUUGAGCAUCA
B3: chr17:27613171:27613172:-_ENSG00000108256_ENST00000225388|hu_mus|motif|central (ssRNA)
RNA: GGGAGUUCUACAGUCCGACGAUCCGUAGGAGAGGCCAGGGGAUUUUGAUUUUCUAUUUCGUAGUCCUUUGAGAGAAACACGGAAGCACCUUGACUACUGGUGUCUGCUUUUUGCAGGUCACCUAUAUGACUGGGGUCCAAGGACAACAGAGGAUUGAGCAUCA
B4: 61770245_61778930_940_3pUTR_ENSG00000086200_ENST00000325324|human|control|control (ssRNA)
RNA: GGGAGUUCUACAGUCCGACGAUCAAGCACUUUAGUAAAAAGAAUGAUGGUCUUUUCCAGUCUAUCUCUACACACAUUAUCUGUACCUAUACUUCUACUGCAUUCCAGAAACUGUUUUAGACGUUCAAAUAUUCCAUGUAAAAACAACAGAGGAUUGAGCAUCA
B5: 130162959_130166533_1262_CDS_ENSMUSG00000026353_ENSMUST00000027592|mouse|control|control (ssRNA)
RNA: GGGAGUUCUACAGUCCGACGAUCCCUCGCUUCUUCUAGAGGAGCAUCAGAAGGAAACUGGUUUGUAAAGGAAGAACCAUCAGGCAGCCGGAACUGAAUUCUUGCAAUGGUGCUUCUGUCUCGUGCUGUAGACUCUCUCUUGACCAACAGAGGAUUGAGCAUCA
B6: chr5:32601156:32601157:+_ENSG00000113387_ENST00000502897|hu_hu|FALSE|FALSE (ssRNA)
RNA: GGGAGUUCUACAGUCCGACGAUCGGUUUUAUUUAUAUGGCUCGAAUUUUACAGUUUUCUUACUGCAUCAUCAAUGUCAGAAAUCUGUUCCUUCAGCUGGCUCCAUUGUUCUGGAUUUAAAGAAAUACCUUUUCUUCCUGGUUUCAACAGAGGAUUGAGCAUCA
B7: chr11:55313332:55313333:+_ENSMUSG00000018583_ENSMUST00000018727|mus_mus|FALSE|FALSE (ssRNA)
RNA: GGGAGUUCUACAGUCCGACGAUCCUCUUUACAAUCUAUUCCUCCUAAAGUAUCAUUCCGGAAAACUGGGAAUGAAGGACUAAGGGGUCAGGGGAGGAAAGGGGGUUGGGAGCACACACCAUGAACACAAGCGAAAUGAAAAUUCAACAGAGGAUUGAGCAUCA
B8: 169910951_169911071_1172_3pUTR_ENSG00000145439_ENST00000306193|human|control|control (ssRNA)
RNA: GGGAGUUCUACAGUCCGACGAUCACAUCCUUUAGAAAACACAAUUUGUCUGGGGGGAUGAUUGCACAUGUAUUUAAAUAUGUUAAAACCACUGAAUUGUGUAUUUUAAAUGUGUGAUUAUAUGGUAUGUGAAUUGUAUCUCAUCAACAGAGGAUUGAGCAUCA
B9: chr6:86333760:86333761:-_ENSG00000135316_ENST00000355238|hu_mus|hu_hu_hu_mus_True|28_98 (ssRNA)
RNA: GGGAGUUCUACAGUCCGACGAUCUUCCUCAAGAAUCUGUUCCUUGGUUUUACUCUUAGGAAUCGAGCCCACAAAAAGCCUAUUGUUGGCAACUGAGAUGCAGACACCAAUAUGUUUCCCGGAACGAAUUUCAUGAUUAUUAUACAACAGAGGAUUGAGCAUCA
B10: chr8:82586177:82586178:-_ENSG00000133731_ENST00000256108|hu_hu|motif|central (ssRNA)
RNA: GGGAGUUCUACAGUCCGACGAUCUCCUUUUCUGGCAGUGUACAUCUUGCCUUCCACACAACUGUACACAACUCCAAAUUCGGUCUUUUUAUUUACAGCAAAGCCAAUUGAAACAGCUACAAAAGGAAAUCUAUGUACAAAGUUCAACAGAGGAUUGAGCAUCA
B11: chr3:8561242:8561243:+_ENSMUSG00000027500_ENSMUST00000029002|mus_hu|motif|central (ssRNA)
RNA: GGGAGUUCUACAGUCCGACGAUCAACAACCAGCUCACAGUUUCCAAGUGGAAAAAUAUUCAGUAGCAUCAUGUACUUGUACGGUAGGUAAGAGCUUAAAAUGAACAUCAUCAAUCAUGGCAUCCACAAAUAAGCCACCUGACACAACAGAGGAUUGAGCAUCA
B12: chr2:32445735:32445736:+_ENSG00000152683_ENST00000406369|hu_hu|motif|central (ssRNA)
RNA: GGGAGUUCUACAGUCCGACGAUCUCAAUAUUCCUUAUAAAAAUAAGUUAGAGUCUAUCAUGGUCUUGGUUGUCCAAUUCGGUUAUUAGUUCCAUAUCUACUUGGUAUAUUUGUAAAACCAGUCCUCAAUCCUUGAGUUGCUCCCAACAGAGGAUUGAGCAUCA
B13: chr5:71493949:71493950:+_ENSG00000131711_ENST00000296755|hu_hu|FALSE|FALSE (ssRNA)
RNA: GGGAGUUCUACAGUCCGACGAUCUGGAGACAUUUCUGUUUCCUGGAAUGUGGUAGGUGUUUGCACAACAGACACUGAAAGGGAGUCAUCUACUUCUGUGGAAUGUGGGGAGCCAACCUCAGCAUGCAGAGAUGGAGACACAUCCAACAGAGGAUUGAGCAUCA
B14: chr22:19452774:19452775:-_ENSG00000070010_ENST00000399523|hu_hu|hu_hu_hu_mus_False|8_108 (ssRNA)
RNA: GGGAGUUCUACAGUCCGACGAUCCUUUUCAUUAUAGUUGAUAGCAAUCACAUCUCCAGUCGUCAGACAGGCGAAGUUUCUCAAUGCAUUUUCUAAUACCGCUUUAGGGUUGGUAAUAUCCAGGAAGUCAGGGCUCUGAGGCUGCAACAGAGGAUUGAGCAUCA
B15: chr1:90180419:90180420:+_ENSG00000171488_ENST00000370454|hu_hu|FALSE|FALSE (ssRNA)
RNA: GGGAGUUCUACAGUCCGACGAUCAGCCCGACAGUCACCCAGUUCAGGAGGGAGGAUUUCAAAGUGAUUACCUUUUACAUCUAAGUAGGAAAGAAAUAGCAAAUUUCCAAUUUUCGGUGAAAGUACAGAUAGGCUGUUUUUUCCCAACAGAGGAUUGAGCAUCA
B16: chr16:30615004:30615005:-_ENSG00000156853_ENST00000287461|hu_hu|motif|central (ssRNA)
RNA: GGGAGUUCUACAGUCCGACGAUCUGCUACUUAACCUGAAAACUUGGGGGCAAAGUGGUUGUGAUUAUCUGAAGGGCUGCGGUGUAGAUGAAGUAUUAAACAUGUCGUAGGCAAGGUUUAGAGGAGAAUGUGGUACUUAACCUUCAACAGAGGAUUGAGCAUCA
B17: chr1:58468927:58468928:-_ENSMUSG00000026034_ENSMUST00000148330|mus_mus|mus_mus_mus_hu_False|1_88 (ssRNA)
RNA: GGGAGUUCUACAGUCCGACGAUCAAUUACUGAAAAAGAUGUUCAUUUAUUUGGUUUUGUACUUAAUGAACCAAAUUACCCAAACAAAAUAAACAUGGCAAUAUAAAAAUGUUAAGAAUUUACAAAGCUGUACAAAAAGACUGACAACAGAGGAUUGAGCAUCA
B18: chr5:136384420:136384421:-_ENSMUSG00000051391_ENSMUST00000055808|mus_hu|motif|central (ssRNA)
RNA: GGGAGUUCUACAGUCCGACGAUCGUACGACAGCUACAUAAUGACUCACAUUCAUGAUAUUCCAUCACUGAGGAAACUGCGGAAGAUGGUCCGUGUGUGAAAUAAUUCCUUAGAGAAACACGGAGCUGGAAAAAUAAUCACUGACAACAGAGGAUUGAGCAUCA
B19: chr3:167401952:167401953:-_ENSG00000114209_ENST00000497056|hu_mus|motif|central (ssRNA)
RNA: GGGAGUUCUACAGUCCGACGAUCAAAAGAAUGAUAAUAGCAAAAGUGAUGCAAAAUCUUCAUUGUGAGAUUAUGAUUAAGCGGCAUUUUACAAAAAUAUGGUGUAAGAUGGCAAUAAUCCCAUUCAACAUCCUGGAUUAGGUCCAACAGAGGAUUGAGCAUCA
B20: chr16:94664741:94664742:+_ENSMUSG00000040785_ENSMUST00000117648|mus_hu|mus_mus_mus_hu_False|1_48 (ssRNA)
RNA: GGGAGUUCUACAGUCCGACGAUCUGGUACUGAUCUUGGUAGCUGAUAUUCAGGAGAAAGGCUGGCCAAGGGUGUAUAUAUGCUGGUGAACUGCGACAAACCUGGUAACACGUUUAUGUAUGCUGGCGGUGUCUGGGUGCCAAACAACAGAGGAUUGAGCAUCA
B21: chr3:41281661:41281662:+_ENSG00000168036_ENST00000349496|hu_mus|FALSE|FALSE (ssRNA)
RNA: GGGAGUUCUACAGUCCGACGAUCACCUGCUUAUUUUAAGCAUAUUAAAAAGGAAACUAAUCGGACCAUUUCUAUCUGUCUAUUUAUACAAAAGGCUACACAAUGUUACACGUCUCCAGAUUACAAUUAGCGUGAUUAUGAAUUCAACAGAGGAUUGAGCAUCA
B22: chr4:40210074:40210075:-_ENSMUSG00000036822_ENSMUST00000042575|mus_mus|motif|central (ssRNA)
RNA: GGGAGUUCUACAGUCCGACGAUCUAUAGGACACUUAGAAUCAGGAGACGCAUCAGCUGGUACUGUCUGCUGCAAUUUGCGGGUGCCAGCUUUAGGUGAAAAGUUGUCCAUUUUAAAUUCCUUAGCAGCUGAGGCCAUUAUCUCCAACAGAGGAUUGAGCAUCA

target: T1, UNK ZnF1-3 (human, UniProt Q9C0B0 31-174); test: nsRBNS (natural sequence RNA bind-n-seq); RBNS binding buffer (assumed for nsRBNS): 25 mM Tris pH 7.5, 150 mM KCl, 3 mM MgCl2, 0.01% Triton X-100, 500 ug/ml BSA, 20 U/ml SUPERase-In, 4 C; UNK is unkempt and MSI1 is Musashi-1; names of the RNAs are library labels; protein concentration not given here; high values mean tight binding
T1 sequence: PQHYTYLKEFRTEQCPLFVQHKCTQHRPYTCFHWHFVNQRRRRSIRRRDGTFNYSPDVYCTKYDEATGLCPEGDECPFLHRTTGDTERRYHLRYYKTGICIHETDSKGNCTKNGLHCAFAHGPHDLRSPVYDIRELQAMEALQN

Point of comparison: B1, binding signal 1.32 enrichment R. Against it:
- B2 — lower, 0.75 enrichment R
- B3 — lower, 1.05 enrichment R
- B4 — lower, 0.737 enrichment R
- B5 — higher, 1.6 enrichment R
- B6 — lower, 0.458 enrichment R
- B7 — lower, 1.25 enrichment R
- B8 — lower, 1.2 enrichment R
- B9 — lower, 1.22 enrichment R
- B10 — lower, 0.993 enrichment R
- B11 — higher, 1.76 enrichment R
- B12 — lower, 1.18 enrichment R
- B13 — the same, 1.32 enrichment R
- B14 — lower, 0.891 enrichment R
- B15 — higher, 1.84 enrichment R
- B16 — higher, 1.73 enrichment R
- B17 — higher, 1.72 enrichment R
- B18 — lower, 1.2 enrichment R
- B19 — lower, 0.71 enrichment R
- B20 — lower, 1.07 enrichment R
- B21 — lower, 0.788 enrichment R
- B22 — lower, 0.772 enrichment R
